This passage reports cell viability results from the supplement of paper PMC9588766.

Structures can show the parent of a compound that is named as a salt. In all, about 1,900 compounds were measured (“cell viability of compound + 1 nM pemigatinib relative to pemigatinib-only (DMSO) wells”: median about 0.95, lowest 2% from about 0.22 on). Some of the results follow.

This assay has as its system PDC-DUC18828. The assay can be described thus: cell viability of compound + 1 nM pemigatinib relative to pemigatinib-only (DMSO) wells (fraction); PDC-DUC18828 is a patient-derived cholangiocarcinoma cell line; higher = less growth inhibition. As to conditions: first compound 1 µM; pemigatinib concentration 1 nM; 72 h. The procedure: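 Selleck Bioactive library screen in the patient-derived FGFR2 fusion-positive ICC cell line PDC-DUC18828 (500 cells/well). Each compound was tested at 1 uM with 1 nM pemigatinib, in triplicate, for 72 h. Viability was read by CellTiter-Glo and normalised to plate DMSO controls. Value is the paper's averaged normalised viability.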
Turning to `O=c1oc2cc(O)ccc2s1` [Tioxolone] + CCN1C(=O)N(c2c(F)c(OC)cc(OC)c2F)Cc2cnc3[nH]c(CN4CCOCC4)cc3c21 [pemigatinib], the cell viability came to 1.01.

Regarding `COc1cc2ncnc(Nc3cccc(Cl)c3)c2cc1OC` [AG-1478 (Tyrphostin AG-1478)] + CCN1C(=O)N(c2c(F)c(OC)cc(OC)c2F)Cc2cnc3[nH]c(CN4CCOCC4)cc3c21 [pemigatinib], the cell viability stood at 0.816. Take `CS(=O)(=O)c1ccc(-c2nnc(/C=C/c3nnc(-c4ccc(C#N)cc4)o3)n2-c2ccccc2Cl)nc1` + CCN1C(=O)N(c2c(F)c(OC)cc(OC)c2F)Cc2cnc3[nH]c(CN4CCOCC4)cc3c21 [pemigatinib]: the cell viability came out at 0.735. Consider `c1coc(CNc2ncnc3[nH]cnc23)c1` [Kinetin] + CCN1C(=O)N(c2c(F)c(OC)cc(OC)c2F)Cc2cnc3[nH]c(CN4CCOCC4)cc3c21 [pemigatinib], for which the cell viability was 0.945. Next, `C[C@]12CCC3=C4CCC(=O)C=C4CC[C@H]3[C@@H]1CC[C@@]2(O)CC#N` [Dienogest] + CCN1C(=O)N(c2c(F)c(OC)cc(OC)c2F)Cc2cnc3[nH]c(CN4CCOCC4)cc3c21 [pemigatinib]: 0.99; `C[C@@H]1C[C@H]2[C@@H]3CCC4=CC(=O)C=C[C@]4(C)[C@@]3(Cl)[C@@H](O)C[C@]2(C)[C@@]1(OC(=O)c1ccco1)C(=O)CCl` [Mometasone furoate] + CCN1C(=O)N(c2c(F)c(OC)cc(OC)c2F)Cc2cnc3[nH]c(CN4CCOCC4)cc3c21 [pemigatinib]: 0.89. Regarding `CCOC(=O)[C@H](CCc1ccccc1)N[C@@H](C)C(=O)N1C(=O)N(C)C[C@H]1C(=O)O` [Imidapril HCl] + CCN1C(=O)N(c2c(F)c(OC)cc(OC)c2F)Cc2cnc3[nH]c(CN4CCOCC4)cc3c21 [pemigatinib], the cell viability worked out at 1.04. In the case of `CC[C@@H](C)Nc1cc(C(=O)N[C@H]2C[C@H]3CC[C@@H](C2)N3c2ccc(C(=O)C3CC3)cn2)c(C)cc1C(N)=O` + CCN1C(=O)N(c2c(F)c(OC)cc(OC)c2F)Cc2cnc3[nH]c(CN4CCOCC4)cc3c21 [pemigatinib], the cell viability turned out to be 0.294. Take `OCCN(CCO)c1nc(N2CCCCC2)c2nc(N(CCO)CCO)nc(N3CCCCC3)c2n1` [Dipyridamole] + CCN1C(=O)N(c2c(F)c(OC)cc(OC)c2F)Cc2cnc3[nH]c(CN4CCOCC4)cc3c21 [pemigatinib]: the cell viability is 0.894. `Cc1ccc(NC(=O)c2cccc(C(C)(C)C#N)c2)cc1Nc1ccc2ncn(C)c(=O)c2c1` + CCN1C(=O)N(c2c(F)c(OC)cc(OC)c2F)Cc2cnc3[nH]c(CN4CCOCC4)cc3c21 [pemigatinib]: the cell viability is 0.831. Regarding `CC[C@H](CO)Nc1nc(NCc2ccccc2)c2ncn(C(C)C)c2n1` [Roscovitine (Seliciclib,CYC202)] + CCN1C(=O)N(c2c(F)c(OC)cc(OC)c2F)Cc2cnc3[nH]c(CN4CCOCC4)cc3c21 [pemigatinib], the cell viability stood at 0.98. Next, `CC(C)OC(=O)C1=CN(C(=O)c2ccc(F)c(F)c2)CC(C)(C)c2c1[nH]c1ccccc21` + CCN1C(=O)N(c2c(F)c(OC)cc(OC)c2F)Cc2cnc3[nH]c(CN4CCOCC4)cc3c21 [pemigatinib]: 0.981; `CN1CCN(C(c2ccccc2)c2ccccc2)CC1` [Cyclizine 2HCl] + CCN1C(=O)N(c2c(F)c(OC)cc(OC)c2F)Cc2cnc3[nH]c(CN4CCOCC4)cc3c21 [pemigatinib]: 0.971.

For `O=C(/C=C\n1cnc(-c2cc(C(F)(F)F)cc(C(F)(F)F)c2)n1)N1CC(F)(F)C1` + CCN1C(=O)N(c2c(F)c(OC)cc(OC)c2F)Cc2cnc3[nH]c(CN4CCOCC4)cc3c21 [pemigatinib], the cell viability is 0.612. Regarding `CC(C)(C)[N+]([O-])=Cc1ccc(S(=O)(=O)O)cc1S(=O)(=O)O` + CCN1C(=O)N(c2c(F)c(OC)cc(OC)c2F)Cc2cnc3[nH]c(CN4CCOCC4)cc3c21 [pemigatinib], the cell viability stood at 0.904.

Take `C[C@]12CC[C@@H]3c4ccc(OC(=O)c5ccccc5)cc4CC[C@H]3[C@@H]1CC[C@@H]2O` [Estradiol Benzoate] + CCN1C(=O)N(c2c(F)c(OC)cc(OC)c2F)Cc2cnc3[nH]c(CN4CCOCC4)cc3c21 [pemigatinib]: the cell viability stood at 0.928. The value for `Cc1ccc(F)c(NC(=O)Nc2ccc(-c3cccc4[nH]nc(N)c34)cc2)c1` [Linifanib (ABT-869)] + CCN1C(=O)N(c2c(F)c(OC)cc(OC)c2F)Cc2cnc3[nH]c(CN4CCOCC4)cc3c21 [pemigatinib] was 0.959.

Regarding `Cc1cccc(CC(=O)N2CCc3c2ccc(-c2cn(C)c4ncnc(N)c24)c3F)n1` + CCN1C(=O)N(c2c(F)c(OC)cc(OC)c2F)Cc2cnc3[nH]c(CN4CCOCC4)cc3c21 [pemigatinib], the cell viability was determined as 0.949. The value for `COc1ccc(-n2c(SCCCN3C(=O)c4cccc5cccc(c45)C3=O)nnc2-c2ccncc2)cc1` + CCN1C(=O)N(c2c(F)c(OC)cc(OC)c2F)Cc2cnc3[nH]c(CN4CCOCC4)cc3c21 [pemigatinib] was 0.799; that for `Cc1c(-c2cnccn2)ssc1=S` [Oltipraz] + CCN1C(=O)N(c2c(F)c(OC)cc(OC)c2F)Cc2cnc3[nH]c(CN4CCOCC4)cc3c21 [pemigatinib] was 0.898; that for `CC(C)(CO)C(O)C(=O)NCCC(=O)O` [Calcium D-Panthotenate] + CCN1C(=O)N(c2c(F)c(OC)cc(OC)c2F)Cc2cnc3[nH]c(CN4CCOCC4)cc3c21 [pemigatinib] was 1.

On to `CCN1CCN(Cc2ccc(C(=O)Nc3ccc(C)c(Oc4ccc5c(c4)CC(=O)N5)c3)cc2C(F)(F)F)CC1` + CCN1C(=O)N(c2c(F)c(OC)cc(OC)c2F)Cc2cnc3[nH]c(CN4CCOCC4)cc3c21 [pemigatinib], for which the cell viability amounted to 0.952. The value for `N[C@@H](Cc1cc(I)c(Oc2ccc(O)c(I)c2)c(I)c1)C(=O)O` [Liothyronine Sodium] + CCN1C(=O)N(c2c(F)c(OC)cc(OC)c2F)Cc2cnc3[nH]c(CN4CCOCC4)cc3c21 [pemigatinib] was 0.984; that for `CN(C)C(=O)[C@H](O)[C@H](Cc1ccccc1)NC(=O)c1cc2cc(Cl)ccc2[nH]1` + CCN1C(=O)N(c2c(F)c(OC)cc(OC)c2F)Cc2cnc3[nH]c(CN4CCOCC4)cc3c21 [pemigatinib] was 0.957.
